Laboratory results taken from article PMC3262128.
No constants are given. Whether binding was seen depends on the method and setting. For some assays here: Binding seen in cells or lysates may run through a third protein. Some entries that bind do so weakly or less than the wild type.

Protein sequences, listed by entry. Tags and fused reporters are not part of them. Lines headed by an entry give the natural chain unless they say otherwise; changes in a name come on top. Chains listed by the source or under a name are the forms on record and can include a tag or linker. Residues count along the entry.
UniProt Q8IXW5: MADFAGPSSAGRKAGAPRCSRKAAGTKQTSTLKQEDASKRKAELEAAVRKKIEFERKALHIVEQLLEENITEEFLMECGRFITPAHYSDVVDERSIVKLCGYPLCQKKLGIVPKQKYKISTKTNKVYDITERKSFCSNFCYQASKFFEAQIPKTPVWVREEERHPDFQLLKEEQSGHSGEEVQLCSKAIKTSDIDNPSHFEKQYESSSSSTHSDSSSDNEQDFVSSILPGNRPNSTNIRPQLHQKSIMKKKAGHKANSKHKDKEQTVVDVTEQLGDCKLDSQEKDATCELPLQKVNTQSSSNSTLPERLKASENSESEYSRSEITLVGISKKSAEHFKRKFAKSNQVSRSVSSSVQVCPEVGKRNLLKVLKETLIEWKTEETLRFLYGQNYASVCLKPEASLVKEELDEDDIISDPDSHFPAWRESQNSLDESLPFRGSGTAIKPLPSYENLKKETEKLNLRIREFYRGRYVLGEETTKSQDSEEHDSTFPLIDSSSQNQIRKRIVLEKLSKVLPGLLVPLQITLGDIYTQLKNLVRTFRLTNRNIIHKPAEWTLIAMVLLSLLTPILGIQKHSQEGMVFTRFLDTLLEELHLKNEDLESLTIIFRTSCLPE
Flag-tagged RPAP2 N-terminal region (1–334): residues 1-334 of Q8IXW5
UniProt Q96HW7: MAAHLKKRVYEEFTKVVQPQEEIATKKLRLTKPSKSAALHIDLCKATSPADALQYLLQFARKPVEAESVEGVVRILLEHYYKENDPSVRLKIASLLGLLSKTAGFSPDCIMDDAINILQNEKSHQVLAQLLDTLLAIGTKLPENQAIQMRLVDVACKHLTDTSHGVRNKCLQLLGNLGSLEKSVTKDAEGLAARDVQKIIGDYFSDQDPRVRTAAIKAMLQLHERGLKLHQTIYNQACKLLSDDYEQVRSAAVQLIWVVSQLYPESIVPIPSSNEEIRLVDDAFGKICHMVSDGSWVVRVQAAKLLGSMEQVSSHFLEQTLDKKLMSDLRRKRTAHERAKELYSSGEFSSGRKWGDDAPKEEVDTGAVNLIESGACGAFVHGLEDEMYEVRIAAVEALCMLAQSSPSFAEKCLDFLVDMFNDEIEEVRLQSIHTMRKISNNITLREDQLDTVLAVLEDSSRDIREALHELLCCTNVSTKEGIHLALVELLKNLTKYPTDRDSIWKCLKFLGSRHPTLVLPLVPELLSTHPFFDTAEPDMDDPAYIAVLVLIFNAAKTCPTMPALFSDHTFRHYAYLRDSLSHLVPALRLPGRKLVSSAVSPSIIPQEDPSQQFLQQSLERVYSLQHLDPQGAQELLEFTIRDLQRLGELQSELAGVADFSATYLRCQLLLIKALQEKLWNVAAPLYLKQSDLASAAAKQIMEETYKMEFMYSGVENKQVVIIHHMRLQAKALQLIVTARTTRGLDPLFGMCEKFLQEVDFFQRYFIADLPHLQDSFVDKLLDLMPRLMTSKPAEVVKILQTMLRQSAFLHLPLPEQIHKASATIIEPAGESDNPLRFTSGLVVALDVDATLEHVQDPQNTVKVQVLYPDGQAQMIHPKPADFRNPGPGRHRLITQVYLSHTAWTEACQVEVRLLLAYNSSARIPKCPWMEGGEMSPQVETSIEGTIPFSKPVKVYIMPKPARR
UniProt Q5TA45: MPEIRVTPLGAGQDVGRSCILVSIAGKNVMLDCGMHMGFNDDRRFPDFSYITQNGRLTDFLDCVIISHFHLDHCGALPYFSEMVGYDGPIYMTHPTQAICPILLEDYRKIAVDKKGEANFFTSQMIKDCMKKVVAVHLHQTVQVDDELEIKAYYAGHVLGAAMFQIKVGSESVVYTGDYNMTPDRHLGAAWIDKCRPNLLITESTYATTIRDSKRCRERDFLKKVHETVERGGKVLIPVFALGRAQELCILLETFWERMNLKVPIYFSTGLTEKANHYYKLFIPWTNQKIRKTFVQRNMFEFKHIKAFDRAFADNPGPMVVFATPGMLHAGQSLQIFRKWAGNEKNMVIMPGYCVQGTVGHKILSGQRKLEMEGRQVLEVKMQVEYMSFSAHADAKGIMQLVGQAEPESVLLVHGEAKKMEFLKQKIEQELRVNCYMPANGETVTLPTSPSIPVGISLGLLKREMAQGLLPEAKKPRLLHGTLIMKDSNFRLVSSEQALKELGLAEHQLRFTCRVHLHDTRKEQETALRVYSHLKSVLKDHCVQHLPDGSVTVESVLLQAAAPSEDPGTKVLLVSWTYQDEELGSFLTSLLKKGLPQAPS
UniProt Q6P9B9: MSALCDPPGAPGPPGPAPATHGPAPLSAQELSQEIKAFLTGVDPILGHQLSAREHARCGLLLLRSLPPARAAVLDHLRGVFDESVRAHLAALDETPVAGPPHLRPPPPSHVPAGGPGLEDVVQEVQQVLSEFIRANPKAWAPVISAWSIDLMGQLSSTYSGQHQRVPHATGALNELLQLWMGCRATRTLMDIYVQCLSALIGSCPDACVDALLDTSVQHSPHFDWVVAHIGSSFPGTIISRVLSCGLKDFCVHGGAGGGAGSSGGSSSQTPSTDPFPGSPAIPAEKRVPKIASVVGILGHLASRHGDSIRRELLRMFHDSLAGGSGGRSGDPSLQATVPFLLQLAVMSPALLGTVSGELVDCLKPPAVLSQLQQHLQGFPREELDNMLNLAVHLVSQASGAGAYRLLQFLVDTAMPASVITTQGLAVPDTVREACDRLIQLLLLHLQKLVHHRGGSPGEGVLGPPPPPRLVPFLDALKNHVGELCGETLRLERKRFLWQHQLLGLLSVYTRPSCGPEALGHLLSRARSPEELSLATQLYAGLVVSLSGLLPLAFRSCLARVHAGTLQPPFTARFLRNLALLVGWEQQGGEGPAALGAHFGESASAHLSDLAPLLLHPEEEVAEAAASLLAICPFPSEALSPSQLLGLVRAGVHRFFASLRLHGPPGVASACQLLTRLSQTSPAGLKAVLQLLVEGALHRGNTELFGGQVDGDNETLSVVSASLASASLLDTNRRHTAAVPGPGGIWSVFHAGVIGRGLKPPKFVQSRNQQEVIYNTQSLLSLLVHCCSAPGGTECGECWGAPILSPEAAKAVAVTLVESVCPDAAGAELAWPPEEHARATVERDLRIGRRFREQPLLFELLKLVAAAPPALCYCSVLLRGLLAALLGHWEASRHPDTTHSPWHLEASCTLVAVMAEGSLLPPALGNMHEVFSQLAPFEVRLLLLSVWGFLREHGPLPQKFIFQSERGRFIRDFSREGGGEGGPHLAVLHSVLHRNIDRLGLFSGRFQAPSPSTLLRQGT
UniProt Q9UL03: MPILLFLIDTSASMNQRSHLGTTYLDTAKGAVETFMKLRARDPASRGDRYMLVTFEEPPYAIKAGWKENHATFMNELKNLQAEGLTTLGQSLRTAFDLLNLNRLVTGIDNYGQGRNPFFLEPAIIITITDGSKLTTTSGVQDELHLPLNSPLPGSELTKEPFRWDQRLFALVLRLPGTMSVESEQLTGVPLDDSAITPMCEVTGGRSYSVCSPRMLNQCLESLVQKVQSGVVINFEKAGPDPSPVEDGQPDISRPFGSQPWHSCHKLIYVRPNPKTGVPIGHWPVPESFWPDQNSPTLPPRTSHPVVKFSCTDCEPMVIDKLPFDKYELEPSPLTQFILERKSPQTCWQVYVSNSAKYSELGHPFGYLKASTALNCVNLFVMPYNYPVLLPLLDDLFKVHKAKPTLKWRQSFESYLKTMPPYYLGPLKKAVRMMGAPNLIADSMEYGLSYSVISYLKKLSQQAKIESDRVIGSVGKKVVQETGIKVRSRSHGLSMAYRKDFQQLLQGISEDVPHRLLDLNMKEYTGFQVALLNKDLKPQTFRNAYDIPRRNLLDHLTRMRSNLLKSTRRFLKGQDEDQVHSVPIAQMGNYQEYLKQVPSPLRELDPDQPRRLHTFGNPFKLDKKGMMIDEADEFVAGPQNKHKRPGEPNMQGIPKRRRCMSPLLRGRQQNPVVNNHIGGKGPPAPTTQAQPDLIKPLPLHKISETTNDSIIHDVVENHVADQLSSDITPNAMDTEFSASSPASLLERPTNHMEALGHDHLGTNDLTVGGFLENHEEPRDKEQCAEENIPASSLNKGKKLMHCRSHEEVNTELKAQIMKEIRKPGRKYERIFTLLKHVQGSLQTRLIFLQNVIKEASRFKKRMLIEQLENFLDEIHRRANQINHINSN
UniProt Q9NVH2: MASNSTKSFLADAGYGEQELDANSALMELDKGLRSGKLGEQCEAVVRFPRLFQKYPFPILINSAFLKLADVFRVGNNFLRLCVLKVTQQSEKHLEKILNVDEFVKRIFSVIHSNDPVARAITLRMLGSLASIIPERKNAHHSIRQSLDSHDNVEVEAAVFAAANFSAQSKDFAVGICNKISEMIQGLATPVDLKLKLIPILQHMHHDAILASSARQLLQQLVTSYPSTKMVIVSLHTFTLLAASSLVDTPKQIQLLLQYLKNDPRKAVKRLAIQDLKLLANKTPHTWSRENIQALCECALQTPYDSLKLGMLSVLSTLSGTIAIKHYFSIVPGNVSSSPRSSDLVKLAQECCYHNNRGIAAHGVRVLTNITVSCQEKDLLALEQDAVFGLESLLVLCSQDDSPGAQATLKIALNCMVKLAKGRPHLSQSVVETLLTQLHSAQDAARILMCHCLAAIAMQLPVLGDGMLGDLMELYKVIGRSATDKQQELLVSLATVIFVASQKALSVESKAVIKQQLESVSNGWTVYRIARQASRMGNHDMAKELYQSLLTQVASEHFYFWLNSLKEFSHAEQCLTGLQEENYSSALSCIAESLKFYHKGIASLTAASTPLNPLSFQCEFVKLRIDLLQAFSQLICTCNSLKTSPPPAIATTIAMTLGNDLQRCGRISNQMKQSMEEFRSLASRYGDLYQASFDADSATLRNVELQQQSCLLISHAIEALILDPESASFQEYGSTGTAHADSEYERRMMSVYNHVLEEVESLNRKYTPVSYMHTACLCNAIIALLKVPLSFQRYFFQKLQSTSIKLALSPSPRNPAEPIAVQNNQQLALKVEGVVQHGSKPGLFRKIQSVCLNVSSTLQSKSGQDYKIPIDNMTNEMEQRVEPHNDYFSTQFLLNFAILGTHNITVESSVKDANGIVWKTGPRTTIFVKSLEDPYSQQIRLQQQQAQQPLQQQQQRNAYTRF

How the values were obtained:
[1] = molecular target: Flag-tagged RPAP2 (RNA Pol II-associated protein 2) (human) (UniProt Q8IXW5); assay: co-sedimentation; F-RPAP2 eluate from the Flag IP on a 5%–45% glycerol gradient (50 mM Tris-HCl 7.5, 200 mM NaCl, 1 mM EDTA, 1 mM DTT), 14 hr at 41000 rpm, SW41 rotor, 0.5 ml fractions; western blot
[2] = molecular target: Flag-tagged RPAP2 N-terminal region (1–334) (human) (UniProt Q8IXW5); assay: co-IP; Flag-tagged RPAP2 proteins expressed in HeLa cells; sonicated lysate in NET-2 buffer (200 mM NaCl, 0.1% NP-40, 50 mM Tris-HCl pH 7.5); anti-Flag M2 affinity gel, six washes, elution with Flag peptide; western blot
[3] = molecular target: Flag-tagged RPAP2 M2 (C136A-C140A) (human) (UniProt Q8IXW5); assay: as above
[4] = molecular target: Flag-tagged RPAP2 (RNA Pol II-associated protein 2) (human) (UniProt Q8IXW5); assay: as above
[5] = molecular target: Flag-tagged RPAP2 M1 (C100A-C105A) (human) (UniProt Q8IXW5); assay: as above
[6] = molecular target: endogenous RPAP2 (human (endogenous in HeLa)) (UniProt Q8IXW5); assay: co-sedimentation; HeLa cell extract on a 5%–45% glycerol gradient; endogenous RPAP2 and Int11 followed by western blot
[7] = molecular target: T1, biotinylated CTD peptide (S7A)×2, not phosphorylated; assay: pull-down; 10 μg N-terminally biotinylated CTD peptide on streptavidin-coated Sepharose beads in 0.1 M KCl HEGN; 1 μg recombinant RPAP2 added, 4°C for 3 hr; five washes with 0.3 M KCl HEGN; western blot; both purified
T1 sequence (peptide, biotin on the N-terminus): YSPTSPAYSPTSPA

Substance | binding [1] | binding [4] | other results
Int4 subunit of the Integrator complex (from UniProt Q96HW7 1-963) | binds | binds | binding [2]: binds; binding [3]: no binding; binding [5]: no binding
Int11, the catalytic subunit of the Integrator complex (from UniProt Q5TA45 1-600) | – | no binding | binding [6]: no binding
recombinant GST-RPAP2 (from UniProt Q8IXW5-1 1-612) | – | – | binding [7]: no binding (tested: 1 μg of recombinant RPAP2 protein)

Further lines, with some results ahead:

binding [1] | binding [4] | Substance | other results
binds | binds | Int5 subunit of the Integrator complex (from UniProt Q6P9B9 1-1019) | –
binds | binds | Int6 subunit of the Integrator complex (from UniProt Q9UL03 1-887) | –
binds | binds | Int7 subunit of the Integrator complex (from UniProt Q9NVH2 1-962) | –
